Measurements as given in the supplement of paper PMC12423691.
Some of the results follow. Binding of human transcription factors and regulators to the viral nucleoprotein by AlphaScreen, crude cell-free proteins, amounts not normalised, one pass. Fold of the Venus control; higher = more signal. No active / inactive call. Single-pass screen; sequences are the whole Swiss-Prot entries looked up by name.

B1: ZSCAN5A, Q9BUG6 (protein)
chain: MAANCTSSWSLGESCNRPGLELPRSMASSETQLGNHDVDPEISHVNFRMFSCPKESDPIQALRKLTELCHLWLRPDLHTKEQILDMLVMEQFMISMPQELQVLVMMNGVQSCKDLEDLLRNNRRPKKWSVVTFHGKEYIVQDSDIEMAEAPSSVRDDLKDVSSQRASSVNQMRPGEGQAHRELQILPRVPALSRRQGEDFLLHKSIDVTGDPKSLRPKQTLEKDLKENREENPGLTSPEPQLPKSPTDLVRAKEGKDPPKIASVENVDADTPSACVVEREASTHSGNRGDALNLSSPKRSKPDASSISQEEPQGEATPVGNRESPGQAGMNSIHSPGPASPVSHPDGQEAKALPPFACDVCEKRFTCNSKLVIHKRSHTGERLFQCNLCGKRFMQLISLQFHQRTHTGERPYTCDVCQKQFTQKSYLKCHKRSHTGEKPFECKDCKKVFTYRGSLKEHQRIHSGEKPYKCSKCPRAFSRLKLLRRHQKTHPEATSQ
B2: HEYL, Q9NQ87 (protein)
chain: MKRPKEPSGSDGESDGPIDVGQEGQLSQMARPLSTPSSSQMQARKKHRGIIEKRRRDRINSSLSELRRLVPTAFEKQGSSKLEKAEVLQMTVDHLKMLHATGGTGFFDARALAVDFRSIGFRECLTEVIRYLGVLEGPSSRADPVRIRLLSHLNSYAAEMEPSPTPTGPLAFPAWPWSFFHSCPGLPALSNQLAILGRVPSPVLPGVSSPAYPIPALRTAPLRRATGIILPARRNVLPSRGASSTRRARPLERPATPVPVAPSSRAARSSHIAPLLQSSSPTPPGPTGSAAYVAVPTPNSSSPGPAGRPAGAMLYHSWVSEITEIGAF
B3: MYBL2, P10244 (protein)
chain: MSRRTRCEDLDELHYQDTDSDVPEQRDSKCKVKWTHEEDEQLRALVRQFGQQDWKFLASHFPNRTDQQCQYRWLRVLNPDLVKGPWTKEEDQKVIELVKKYGTKQWTLIAKHLKGRLGKQCRERWHNHLNPEVKKSCWTEEEDRIICEAHKVLGNRWAEIAKMLPGRTDNAVKNHWNSTIKRKVDTGGFLSESKDCKPPVYLLLELEDKDGLQSAQPTEGQGSLLTNWPSVPPTIKEEENSEEELAAATTSKEQEPIGTDLDAVRTPEPLEEFPKREDQEGSPPETSLPYKWVVEAANLLIPAVGSSLSEALDLIESDPDAWCDLSKFDLPEEPSAEDSINNSLVQLQASHQQQVLPPRQPSALVPSVTEYRLDGHTISDLSRSSRGELIPISPSTEVGGSGIGTPPSVLKRQRKRRVALSPVTENSTSLSFLDSCNSLTPKSTPVKTLPFSPSQFLNFWNKQDTLELESPSLTSTPVCSQKVVVTTPLHRDKTPLHQKHAAFVTPDQKYSMDNTPHTPTPFKNALEKYGPLKPLPQTPHLEEDLKEVLRSEAGIELIIEDDIRPEKQKRKPGLRRSPIKKVRKSLALDIVDEDVKLMMSTLPKSLSLPTTAPSNSSSLTLSGIKEDNSLLNQGFLQAKPEKAAVAQKPRSHFTTPAPMSSAWKTVACGGTRDQLFMQEKARQLLGRLKPSHTSRTLILS
B4: PEX14, O75381 (protein)
chain: MASSEQAEQPSQPSSTPGSENVLPREPLIATAVKFLQNSRVRQSPLATRRAFLKKKGLTDEEIDMAFQQSGTAADEPSSLGPATQVVPVQPPHLISQPYSPAGSRWRDYGALAIIMAGIAFGFHQLYKKYLLPLILGGREDRKQLERMEAGLSELSGSVAQTVTQLQTTLASVQELLIQQQQKIQELAHELAAAKATTSTNWILESQNINELKSEINSLKGLLLNRRQFPPSPSAPKIPSWQIPVKSPSPSSPAAVNHHSSSDISPVSNESTSSSPGKEGHSPEGSTVTYHLLGPQEEGEGVVDVKGQVRMEVQGEEEKREDKEDEEDEEDDDVSHVDEEDCLGVQREDRRGGDGQINEQVEKLRRPEGASNESERD
B5: JAK2, O60674 (protein)
chain: MGMACLTMTEMEGTSTSSIYQNGDISGNANSMKQIDPVLQVYLYHSLGKSEADYLTFPSGEYVAEEICIAASKACGITPVYHNMFALMSETERIWYPPNHVFHIDESTRHNVLYRIRFYFPRWYCSGSNRAYRHGISRGAEAPLLDDFVMSYLFAQWRHDFVHGWIKVPVTHETQEECLGMAVLDMMRIAKENDQTPLAIYNSISYKTFLPKCIRAKIQDYHILTRKRIRYRFRRFIQQFSQCKATARNLKLKYLINLETLQSAFYTEKFEVKEPGSGPSGEEIFATIIITGNGGIQWSRGKHKESETLTEQDLQLYCDFPNIIDVSIKQANQEGSNESRVVTIHKQDGKNLEIELSSLREALSFVSLIDGYYRLTADAHHYLCKEVAPPAVLENIQSNCHGPISMDFAISKLKKAGNQTGLYVLRCSPKDFNKYFLTFAVERENVIEYKHCLITKNENEEYNLSGTKKNFSSLKDLLNCYQMETVRSDNIIFQFTKCCPPKPKDKSNLLVFRTNGVSDVPTSPTLQRPTHMNQMVFHKIRNEDLIFNESLGQGTFTKIFKGVRREVGDYGQLHETEVLLKVLDKAHRNYSESFFEAASMMSKLSHKHLVLNYGVCVCGDENILVQEFVKFGSLDTYLKKNKNCINILWKLEVAKQLAWAMHFLEENTLIHGNVCAKNILLIREEDRKTGNPPFIKLSDPGISITVLPKDILQERIPWVPPECIENPKNLNLATDKWSFGTTLWEICSGGDKPLSALDSQRKLQFYEDRHQLPAPKWAELANLINNCMDYEPDFRPSFRAIIRDLNSLFTPDYELLTENDMLPNMRIGALGFSGAFEDRDPTQFEERHLKFLQQLGKGNFGSVEMCRYDPLQDNTGEVVAVKKLQHSTEEHLRDFEREIEILKSLQHDNIVKYKGVCYSAGRRNLKLIMEYLPYGSLRDYLQKHKERIDHIKLLQYTSQICKGMEYLGTKRYIHRDLATRNILVENENRVKIGDFGLTKVLPQDKEYYKVKEPGESPIFWYAPESLTESKFSVASDVWSFGVVLYELFTYIEKSKSPPAEFMRMIGNDKQGQMIVFHLIELLKNNGRLPRPDGCPDEIYMIMTECWNNNVNQRPSFRDLALRVDQIRDNMAG
B6: NR1D1, P20393 (protein)
chain: MTTLDSNNNTGGVITYIGSSGSSPSRTSPESLYSDNSNGSFQSLTQGCPTYFPPSPTGSLTQDPARSFGSIPPSLSDDGSPSSSSSSSSSSSSFYNGSPPGSLQVAMEDSSRVSPSKSTSNITKLNGMVLLCKVCGDVASGFHYGVHACEGCKGFFRRSIQQNIQYKRCLKNENCSIVRINRNRCQQCRFKKCLSVGMSRDAVRFGRIPKREKQRMLAEMQSAMNLANNQLSSQCPLETSPTQHPTPGPMGPSPPPAPVPSPLVGFSQFPQQLTPPRSPSPEPTVEDVISQVARAHREIFTYAHDKLGSSPGNFNANHASGSPPATTPHRWENQGCPPAPNDNNTLAAQRHNEALNGLRQAPSSYPPTWPPGPAHHSCHQSNSNGHRLCPTHVYAAPEGKAPANSPRQGNSKNVLLACPMNMYPHGRSGRTVQEIWEDFSMSFTPAVREVVEFAKHIPGFRDLSQHDQVTLLKAGTFEVLMVRFASLFNVKDQTVMFLSRTTYSLQELGAMGMGDLLSAMFDFSEKLNSLALTEEELGLFTAVVLVSADRSGMENSASVEQLQETLLRALRALVLKNRPLETSRFTKLLLKLPDLRTLNNMHSEKLLSFRVDAQ
B7: GABPB1, Q06547 (protein)
chain: MSLVDLGKKLLEAARAGQDDEVRILMANGAPFTTDWLGTSPLHLAAQYGHYSTTEVLLRAGVSRDARTKVDRTPLHMAASEGHASIVEVLLKHGADVNAKDMLKMTALHWATEHNHQEVVELLIKYGADVHTQSKFCKTAFDISIDNGNEDLAEILQIAMQNQINTNPESPDTVTIHAATPQFIIGPGGVVNLTGLVSSENSSKATDETGVSAVQFGNSSTSVLATLAALAEASAPLSNSSETPVVATEEVVTAESVDGAIQQVVSSGGQQVITIVTDGIQLGNLHSIPTSGIGQPIIVTMPDGQQVLTVPATDIAEETVISEEPPAKRQCIEIIENRVESAEIEEREALQKQLDEANREAQKYRQQLLKKEQEAEAYRQKLEAMTRLQTNKEAV
B8: ZNF583, Q96ND8 (protein)
chain: MSKDLVTFGDVAVNFSQEEWEWLNPAQRNLYRKVMLENYRSLVSLGVSVSKPDVISLLEQGKEPWMVKKEGTRGPCPDWEYVFKNSEFSSKQETYEESSKVVTVGARHLSYSLDYPSLREDCQSEDWYKNQLGSQEVHLSQLIITHKEILPEVQNKEYNKSWQTFHQDTIFDIQQSFPTKEKAHKHEPQKKSYRKKSVEMKHRKVYVEKKLLKCNDCEKVFNQSSSLTLHQRIHTGEKPYACVECGKTFSQSANLAQHKRIHTGEKPYECKECRKAFSQNAHLAQHQRVHTGEKPYQCKECKKAFSQIAHLTQHQRVHTGERPFECIECGKAFSNGSFLAQHQRIHTGEKPYVCNVCGKAFSHRGYLIVHQRIHTGERPYECKECRKAFSQYAHLAQHQRVHTGEKPYECKVCRKAFSQIAYLDQHQRVHTGEKPYECIECGKAFSNSSSLAQHQRSHTGEKPYMCKECRKTFSQNAGLAQHQRIHTGEKPYECNVCGKAFSYSGSLTLHQRIHTGERPYECKDCRKSFRQRAHLAHHERIHTMESFLTLSSPSPSTSNQLPRPVGFIS
B9: CEBPG, P53567 (protein)
chain: MSKISQQNSTPGVNGISVIHTQAHASGLQQVPQLVPAGPGGGGKAVAPSKQSKKSSPMDRNSDEYRQRRERNNMAVKKSRLKSKQKAQDTLQRVNQLKEENERLEAKIKLLTKELSVLKDLFLEHAHNLADNVQSISTENTTADGDNAGQ

molecular target: nucleoprotein N of Crimean-Congo hemorrhagic fever virus; assay: AlphaScreen luminescence signal relative to Venus negative control (fold); higher = stronger binding to CCHFV N
Description: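 AlphaScreen binding of cell-free made, FLAG-GST-tagged human transcription factors and regulators (crude translation products) to biotinylated N protein; signal as fold of the FLAG-GST-Venus control. One pass.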

| Binder | AlphaScreen luminescence signal |
| --- | --- |
| B1 | 5.49 |
| B2 | 1.77 |
| B3 | 3.91 |
| B4 | 29.7 |
| B5 | 2.88 |
| B6 | 3.44 |
| B7 | 1.16 |
| B8 | 2.33 |
| B9 | 2.51 |
